Data published in the antibiotic and cytotoxicity screens of Wong et al. (2023).
Some of the results follow.

Tested on: HSkMC (human skeletal muscle cells)
Assay: cytotoxicity call (relative viability < 0.9)
Conditions: 10 µM

SMILES	cytotoxicity call
Cc1ccc(C(=O)N2c3ccccc3Sc3ccccc32)cc1	inactive
O=C(/C=c1/nc2c([nH]c1=O)=NON2)c1ccccc1	inactive
COc1ccc(NC(=O)Nc2ccc3c(c2)C(=O)N([C@H](C)CO)C[C@H](C)[C@H](CN(C)S(=O)(=O)c2ccc(F)cc2)OCCCC[C@H](C)O3)cc1	inactive
C[C@H](CO)N1C[C@H](C)[C@@H](CN(C)CC2CC2)OCCCC[C@H](C)Oc2ccc(NC(=O)Nc3cccc4ccccc34)cc2C1=O	inactive
C[C@@H]1CN([C@@H](C)CO)C(=O)CCCn2nncc2CO[C@H]1CN(C)C(=O)c1ccc(N2CCN(C)CC2)cc1	inactive
C(=N\c1ccccc1)/c1ccccc1	inactive
CC(=O)O[C@H]1[C@H](O)[C@H](O)[C@H](O[C@@H]2[C@@H](Oc3cc(O)c4c(=O)cc(-c5ccc(O)c(O)c5)oc4c3)O[C@@H](C(=O)O)[C@H](O)[C@@H]2O)O[C@@H]1C	inactive
C[C@@H]1CN([C@H](C)CO)C(=O)CCCn2cc(nn2)CO[C@H]1CN(C)S(=O)(=O)c1ccc(Cl)cc1	inactive
C[C@H](CO)N1C[C@H](C)[C@@H](CN(C)C(=O)Nc2ccc(C(F)(F)F)cc2)OCCCC[C@H](C)Oc2ccc(NC(=O)Nc3ccc(F)cc3)cc2C1=O	inactive
C[C@H](CO)N1C[C@H](C)[C@H](CN(C)C(=O)Nc2ccc(F)cc2)Oc2c(NS(=O)(=O)c3cn(C)cn3)cccc2C1=O	inactive
CN1C[C@@H]2CN(C(=O)[C@H]3CCOC3)C[C@H]2C1=O	inactive
Cc1ccc(S(=O)(=O)N(C)C[C@H]2Oc3c(NC(=O)c4ccncc4)cccc3C(=O)N([C@H](C)CO)C[C@@H]2C)cc1	inactive
C[C@@H]1CN([C@H](C)CO)C(=O)c2cc(NC(=O)Cn3cnnn3)ccc2O[C@H]1CN(C)S(=O)(=O)c1cccs1	inactive
C[C@@H]1CCCCO[C@H](CN(C)Cc2ccccc2)[C@H](C)CN([C@H](C)CO)C(=O)c2cc(NC(=O)Nc3ccccc3)ccc2O1	inactive
COc1ccc(CNC(=O)C[C@H]2CC[C@H]3[C@@H](COc4ccc(NC(=O)C5CC5)cc4C(=O)N3C)O2)cc1	inactive
C[C@H](CO)N1C[C@H](C)[C@@H](CN(C)S(=O)(=O)c2cn(C)cn2)Oc2ncc(/C=C/c3ccccc3)cc2C1=O	inactive
O=C(C[C@H]1CC[C@@H]2[C@H](COC[C@H](O)CN2Cc2cccc(C(F)(F)F)c2)O1)NCCc1ccncc1	inactive
C[C@H](CO)N1C[C@H](C)[C@@H](CN(C)S(=O)(=O)c2ccc(F)cc2)Oc2ccc(NS(=O)(=O)c3ccccc3)cc2CC1=O	inactive
Cc1noc(C)c1NC(=O)Nc1ccc2c(c1)C(=O)N([C@H](C)CO)C[C@@H](C)[C@@H](CN(C)C(=O)Nc1ccccc1)OCCCC[C@@H](C)O2	inactive
C=C/C=C/[C@@H]1C(=C)CN2[C@H]1[C@H](Cc1ccccc1)OC(=O)[C@@H]2Cc1ccc(-n2cc(COc3ccccc3/C=C(C)/C=C/C(=O)NO)nn2)cc1	inactive

SMILES	cytotoxicity call
CCc1ccc(NC(=N)N=C(N)N)cc1	inactive
O=C(C[C@@H]1C[C@H]2c3cc(NC(=O)c4ccc5c(c4)OCO5)ccc3O[C@H]2[C@H](CO)O1)NCCN1CCCCC1	inactive
Cc1noc(C)c1S(=O)(=O)Nc1ccc2c(c1)C(=O)N([C@H](C)CO)C[C@H](C)[C@@H](CN(C)C(=O)Nc1cccc3ccccc13)OCCCC[C@@H](C)O2	inactive
COc1ccc(NC(=O)Nc2ccc3c(c2)C(=O)N([C@@H](C)CO)C[C@@H](C)[C@@H](CN(C)Cc2ccc(Cl)c(Cl)c2)O3)cc1	inactive
COCC(=O)N1C[C@H](C)[C@H](OC)CN(C)C(=O)c2ccc(NC(=O)Nc3ccccc3)cc2OC[C@H]1C	inactive
C[C@H]1CN([C@@H](C)CO)C(=O)Cc2cc(NC(=O)Nc3cccc4ccccc34)ccc2O[C@H]1CN(C)C(=O)Nc1ccc(F)cc1	inactive
COCC#Cc1ccc([C@H]2[C@@H](CO)N3C(=O)CN(C(=O)C4CCOCC4)C[C@H]23)cc1	inactive
COc1cccc(S(=O)(=O)Nc2ccc3c(c2)[C@H]2C[C@H](CC(=O)NCc4ccccc4F)O[C@@H](CO)[C@H]2O3)c1	inactive
C[C@H](CO)N1C[C@H](C)[C@@H](CN(C)C(=O)NC2CCCCC2)OCCCC[C@H](C)Oc2ccc(NS(=O)(=O)c3ccc(F)cc3)cc2C1=O	inactive
C[C@H]1CN([C@@H](C)CO)C(=O)c2cc(NC(=O)CCCN(C)C)ccc2O[C@H]1CN(C)Cc1ccccc1	inactive
C[C@@H]1CCCCO[C@H](CN(C)Cc2ccc3c(c2)OCO3)[C@@H](C)CN([C@H](C)CO)C(=O)c2cc(NC(=O)Nc3ccc4c(c3)OCO4)ccc2O1	inactive
Nc1nnc(N)c2ccccc12	inactive
O=C(C[C@H]1CC[C@@H]2[C@H](COC[C@@H](O)CN2S(=O)(=O)c2ccc(Oc3ccccc3)cc2)O1)NCCN1CCCCC1	inactive
C[C@@H]1CN([C@@H](C)CO)C(=O)c2ccccc2-c2ccccc2CO[C@@H]1CN(C)Cc1cccc(C(F)(F)F)c1	active
Cc1noc(C)c1NC(=O)N[C@H]1C=C[C@@H](CC(=O)N2CCN(C)CC2)O[C@@H]1CO	inactive
C[C@H]1CN([C@@H](C)CO)C(=O)c2cc(NC(=O)c3ccncc3)ccc2O[C@@H]1CN(C)Cc1ccc(Oc2ccccc2)cc1	inactive
C[C@@H]1CN([C@@H](C)CO)C(=O)c2cc(C#Cc3cccnc3)cnc2O[C@@H]1CN(C)S(=O)(=O)c1ccccc1F	inactive
C[C@H]1CN([C@@H](C)CO)C(=O)c2cc(C#Cc3ccc(F)cc3)cnc2O[C@H]1CN(C)CC1CCOCC1	inactive
Cn1c(=O)c2c(nc(N3CCCCC3)n2CCN)n(C)c1=O	inactive
c1cnc2ccc3ncccc3c2c1	inactive
